PubChem BioAssay AID1240 (Sanford-Burnham Center for Chemical Genomics, 2008)
In all, about 50,000 compounds went through this assay and about 800 (1.6%) showed an effect of 50% or more. Some of the results follow.

molecular target: Bcl-2-like protein 10 (Homo sapiens) (UniProt Q9HD36); experiment: Phenotype converters, Bcl-B/TR3 peptide binding displacement, primary biochemical FP (AID 1240); details: GST-Bcl-B / FITC-TR3 peptide fluorescence polarization; stronger effect = higher value; compound at 3.75 mg/L;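 note: 0% = Bcl-B with tracer peptide and DMSO and 100% = tracer peptide lacking Bcl-B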
UniProt Q9HD36, sequence (Q9HD36 whole entry, looked up): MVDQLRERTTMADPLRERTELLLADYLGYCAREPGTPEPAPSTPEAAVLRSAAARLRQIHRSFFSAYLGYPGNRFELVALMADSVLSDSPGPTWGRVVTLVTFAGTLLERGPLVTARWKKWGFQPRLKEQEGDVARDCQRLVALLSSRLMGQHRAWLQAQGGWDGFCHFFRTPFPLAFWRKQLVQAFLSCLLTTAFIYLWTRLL

For `Cc1cc(NCc2ccco2)nc2ccccc12`, which displacement is on record?
The displacement was 1.4%.

For `O=C(NC(c1ccccc1)c1ccccc1)c1ccc([N+](=O)[O-])cc1Cl`, which displacement is on record?
Its displacement is 3.3%.

How did the displacement turn out when `CC(=O)Nc1ccc(S(=O)(=O)N(c2cccnc2)S(=O)(=O)c2ccc(NC(C)=O)cc2)cc1` was run?
The displacement was 12.5%.

Which displacement does the source give for `CC(C)NC(=O)c1cnn2c(C(F)(F)F)cc(-c3ccc(F)cc3)nc12` here?
The displacement was 11.6%.

For `O=C(COc1ccccc1)N1CCN(C(=O)c2ccc(F)cc2)CC1`, which displacement is on record?
Its displacement is -1.8%.

Which displacement does the source give for `CC(C)=C1C2C=CC1C1C(=O)N(c3ccc(F)cc3)C(=O)C21` (configuration not stated) here?
The displacement was 6.6%.

For `COc1ccc(/C=C/C(=O)N(C)C2CCCCC2)cc1Br`, which displacement is on record?
Its displacement is 11%.

Which displacement does the source give for `O=C(Nc1ccc([N+](=O)[O-])cc1Cl)c1cccnc1` here?
Its displacement is -1.7%.

With `COc1ccccc1CNC(=O)c1ccc(CN(c2ccccc2)S(=O)(=O)c2ccccc2)cc1` as the compound, how does the displacement read?
Its displacement is 3.3%.

With `O=C(O)c1ccccc1/C=C1/SC(=S)N(c2ccc(F)cc2)C1=O` as the compound, how does the displacement read?
Its displacement is -3.6%.

With `Cc1ccc(NC(=O)c2ccc(C3SCC(=O)N3Cc3ccccc3)cc2)c(C)c1` (configuration not stated) as the compound, how does the displacement read?
Its displacement is -3.6%.

With `O=c1c2ccc(Br)c3cccc(c32)c2nc3cccc4cccc(c43)n12` as the compound, how does the displacement read?
The displacement was 7.1%.

Which displacement does the source give for `CN1CCN(C2CC(=O)N(c3ccc(N4CCOCC4)cc3)C2=O)CC1` (configuration not stated) here?
Its displacement is -9.5%.

How did the displacement turn out when `CCn1cc(C(=O)NN)c(=O)c2cc(Br)ccc21` was run?
The displacement was 20.2%.

For `COc1ccc2c(c1)CC/C(=C/Nc1ccc3c(c1)OCO3)C2=O`, which displacement is on record?
The displacement was 3.5%.

How did the displacement turn out when `CC(C)(C)C(=O)c1no[n+]([O-])c1C(=O)C(C)(C)C` was run?
The displacement was -0.4%.

`O=C1/C(=C\C=C\c2ccc([N+](=O)[O-])cc2)SC(=S)N1NS(=O)(=O)c1ccccc1` was tested. Which displacement did it give?
The displacement was 39.9%.

For `C=CCN1C(=O)/C(=C\C=C\c2ccccc2)SC1=S`, which displacement is on record?
Its displacement is 6.3%.

How did the displacement turn out when `CN(c1ccccc1)c1ccc(C2NN=C(c3ccccc3)S2)cc1` (configuration not stated) was run?
The displacement was 4.4%.

With `O=C(Nc1ccccc1)C1(S(=O)(=O)c2ccccc2)CC1` as the compound, how does the displacement read?
The displacement was 6.5%.

With `CCN(CC)c1ccc(NC(=O)c2cc(Br)ccc2Cl)cc1` as the compound, how does the displacement read?
The displacement was 16.4%.

How did the displacement turn out when `Cc1ccccc1OCc1nc(-c2cccnc2)no1` was run?
Its displacement is -3.1%.

How did the displacement turn out when `COc1cc(/C=N/N=c2\sc3ccccc3n2C)ccc1O` was run?
Its displacement is 9.8%.

Which displacement does the source give for `C=CCN1C(=O)/C(=C\c2ccc(-c3cccc(Cl)c3)o2)SC1=S` here?
The displacement was 1.4%.

Which displacement does the source give for `Nc1cccc(C(=O)c2cccc(N)c2)c1` here?
The displacement was 4.3%.

With `CCOC(=O)COc1ccc(/C=N\n2nnnc2N)cc1OC` as the compound, how does the displacement read?
Its displacement is 0.3%.

`O=C(c1ccc(Cl)cc1)N1CCN=C1c1ccccc1` was tested. Which displacement did it give?
The displacement was 14.8%.

Which displacement does the source give for `CCOc1ccc(N(CC(=O)Nc2cc(C)cc(C)c2)S(C)(=O)=O)cc1` here?
Its displacement is 4.3%.

With `COc1ccccc1N1CCN(C(=O)c2ccco2)CC1` as the compound, how does the displacement read?
Its displacement is -3.5%.

With `CN1CCN(CCCCOc2cccc3ccccc23)CC1` as the compound, how does the displacement read?
The displacement was -6.4%.

For `O=C(O)CCC(=O)N1N=C(c2ccc(Br)cc2)CC1c1ccccc1` (configuration not stated), which displacement is on record?
Its displacement is 14.4%.

Which displacement does the source give for `C/C(=N\NC(=O)c1cc(C2CC2)[nH]n1)c1ccc([N+](=O)[O-])cc1` here?
Its displacement is -10.1%.

For `COc1cccc(/C=N/Nc2nc(C)cc(=O)[nH]2)c1O`, which displacement is on record?
Its displacement is 13.4%.

Which displacement does the source give for `Cc1c(NC(=O)c2cc(-c3ccccc3)nc3ccccc23)cccc1[N+](=O)[O-]` here?
Its displacement is -5.7%.

For `O=C(O)CN=C(NS(=O)(=O)c1ccccc1)c1ccccc1`, which displacement is on record?
Its displacement is 8.8%.

With `O=C(NNc1nc(-c2ccccc2)cc(-c2ccccc2)n1)Nc1ccccc1` as the compound, how does the displacement read?
The displacement was -5.9%.

With `O=C(CCCOc1ccccc1)Nc1ccccc1[N+](=O)[O-]` as the compound, how does the displacement read?
The displacement was -3.8%.

`COC(=O)C(NC(=O)c1ccccc1Br)C(C)C` (configuration not stated) was tested. Which displacement did it give?
The displacement was -0.9%.

For `COc1cc(Br)c(CCNC(=O)c2ccc(Cl)cc2)cc1OC`, which displacement is on record?
Its displacement is 4%.

With `Cc1cccc(-n2c(O)c(C3=c4ccccc4=NC3=O)sc2=O)c1` as the compound, how does the displacement read?
The displacement was 10.3%.

Which displacement does the source give for `COc1ccc(C(=O)NCCC(C)C)cc1[N+](=O)[O-]` here?
The displacement was 3%.

`Cc1ccccc1C(=O)Nc1cc(C(N)=O)c(Cl)cc1Cl` was tested. Which displacement did it give?
The displacement was 0.6%.

With `COc1ccccc1C(=O)OC(C(=O)c1ccccc1)c1ccccc1` (configuration not stated) as the compound, how does the displacement read?
The displacement was -10.5%.

For `COc1cccc(OC)c1C(=O)c1ccccc1`, which displacement is on record?
Its displacement is 9.2%.

With `Cc1ccc(C(=O)O/N=C(/c2nonc2N)N2CCOCC2)cc1` as the compound, how does the displacement read?
Its displacement is 9.1%.

For `COc1ccc(C(=O)N2CCN(C(=O)c3cccc(Cl)c3)CC2)cc1OC`, which displacement is on record?
The displacement was -7.4%.

With `Nn1c(Nc2ccccc2)nc2ccccc2c1=O` as the compound, how does the displacement read?
Its displacement is -15.5%.

How did the displacement turn out when `Brc1ccc(/C=N/N2CCN(c3ccccc3)CC2)s1` was run?
Its displacement is 5.7%.

For `Cc1ccc(S(=O)(=O)N=Nc2c(O)[nH]c3ccc(Br)cc23)cc1C`, which displacement is on record?
Its displacement is 10.9%.

Which displacement does the source give for `COc1ccc2nc(N/C(N)=N/S(=O)(=O)c3ccc(C)cc3)nc(C)c2c1` here?
The displacement was 5.2%.

How did the displacement turn out when `O=C(O)C1C2C=CC(C3CC23)C1C(=O)Nc1ccccc1Cl` (configuration not stated) was run?
Its displacement is 3.9%.

For `O=C(CCNc1cc(Cl)cc(Cl)c1)c1ccco1`, which displacement is on record?
Its displacement is -15.8%.

Which displacement does the source give for `COC(=O)C1=C(C)N(Cc2ccco2)C(=O)/C1=C\c1ccc(O)cc1` here?
Its displacement is -0.9%.

`COc1ccc(-n2c(=S)[nH]c3nc4c(cc3c2=O)COC(C)(C)C4)cc1` was tested. Which displacement did it give?
Its displacement is -8.6%.

`CN(C)c1ccc(/C=N/N2C(=O)CSC2=S)cc1` was tested. Which displacement did it give?
Its displacement is -18.8%.

With `O=C(NCCOc1ccccc1F)c1ccc(Br)cc1` as the compound, how does the displacement read?
Its displacement is 12.8%.

For `COc1ccc(O)c(CN2CCN(Cc3ccc([N+](=O)[O-])cc3)CC2)c1`, which displacement is on record?
The displacement was 2.9%.

With `O=C(NCc1ccc(Cl)cc1)C(=O)Nc1cccc2ccccc12` as the compound, how does the displacement read?
The displacement was -6%.

With `C=CCN1C(=O)/C(=C2/C=Cc3cc(C)ccc3N2CC)SC1=S` as the compound, how does the displacement read?
The displacement was 15.9%.

`COc1ccc(N(CC(=O)Nc2ccccc2C)S(C)(=O)=O)cc1` was tested. Which displacement did it give?
The displacement was 0.6%.

For `Cc1ccc(/C=C2\SC(=S)N(CCC(=O)OCCN(C)C)C2=O)cc1`, which displacement is on record?
Its displacement is 13.1%.

`O=C(N/N=C/c1cccc([N+](=O)[O-])c1)c1cc[n+](CCO)cc1` was tested. Which displacement did it give?
Its displacement is -1.1%.

For `O=C(c1nn2c(c1Cl)NC(c1ccc(F)cc1)CC2C(F)(F)F)N1CCN(Cc2ccccc2)CC1` (configuration not stated), which displacement is on record?
Its displacement is 13.2%.

For `COc1c(Cl)cc(C(=O)N2CCN(c3ccc([N+](=O)[O-])c(NC4CC4)c3)CC2)cc1Cl`, which displacement is on record?
The displacement was 9.7%.

How did the displacement turn out when `O=C(NCc1ccccc1)C(O)(c1ccc(F)cc1)c1ccc(F)cc1` was run?
The displacement was -12.1%.

With `CC(C)(C)NC(=O)CCNS(=O)(=O)c1ccccc1[N+](=O)[O-]` as the compound, how does the displacement read?
The displacement was 10.5%.

For `COc1ccc(-c2nnc(NC(=O)c3ccccc3Br)s2)cc1OC`, which displacement is on record?
The displacement was -12.1%.

For `NC(=O)SCC(=O)Nc1ccccc1O`, which displacement is on record?
Its displacement is 4.9%.

With `COc1ccccc1CNC(=O)c1cccc([N+](=O)[O-])c1C` as the compound, how does the displacement read?
Its displacement is -7.3%.

For `COc1cccc(-n2sc3c(c2=S)-c2ccccc2NC3(C)C)c1`, which displacement is on record?
The displacement was -6.6%.

With `CCOC(=O)c1cc(-c2ccc(Cl)cc2)nc2ccccc12` as the compound, how does the displacement read?
Its displacement is -8.6%.

`Cc1ccc(-c2cc(C(=O)N3CC(C)CC(C)C3)c3ccccc3n2)cc1C` (configuration not stated) was tested. Which displacement did it give?
Its displacement is 0.3%.
